# Experimental data as given in the supplement of paper PMC9588766.
# Where a name gives a salt, the structure may show the parent alone. ± gives the standard deviation of the averaged measurements. The full ranking holds about 2,000 compounds; the median of “cell viability relative to DMSO control (compound alone)” is about 0.98, and the lowest 2% start at about 0.23. The list shows a part of the results.
# System: PDC-DUC18828
# Experiment: cell viability relative to DMSO control (compound alone) (fraction); PDC-DUC18828 is a patient-derived cholangiocarcinoma cell line; higher = less growth inhibition
# Settings: 1 µM; 72 h
# Method: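 Selleck Bioactive library screen in the patient-derived FGFR2-G3BP2 fusion-positive ICC cell line PDC-DUC18828 (500 cells/well). Each compound was tested at 1 uM alone, in triplicate, for 72 h. Viability was read by CellTiter-Glo and normalised to plate DMSO controls.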
row,Compound,cell viability
1,COc1cc(C2Oc3cc([C@H]4Oc5cc(O)cc(O)c5C(=O)[C@@H]4O)ccc3OC2CO)ccc1O (stereo partly drawn) [Silymarin],0.981 ± 0.026
2,COc1cc(C2Oc3cc([C@H]4Oc5cc(O)cc(O)c5C(=O)[C@@H]4O)ccc3OC2CO)ccc1O (stereo partly drawn) [Silibinin],0.918 ± 0.036
3,CCN(CC)CCOC(=O)c1ccc(N)cc1 [Procaine HCl],0.942 ± 0.031
4,Clc1ccc(C(Cn2ccnc2)OCc2ccc(Sc3ccccc3)cc2)c(Cl)c1 (stereo not drawn) [Fenticonazole Nitrate],1.03 ± 0.056
5,CC[C@H](C)C(=O)O[C@H]1C[C@@H](C)C=C2C=C[C@H](C)[C@H](CC[C@@H]3C[C@@H](O)CC(=O)O3)[C@H]21 [Lovastatin],0.96 ± 0.041
6,COc1cccc2cc(-c3nc([C@H]4CC[C@H](C(=O)O)CC4)n4ncnc(N)c34)[nH]c12,0.328 ± 0.019
7,O=C1CCC[C@@H]2[C@H]3CCC[N+]4([O-])CCC[C@@H](CN12)[C@@H]34 (stereo partly drawn) [Oxymatrine],1.03 ± 0.018
8,CC(C)n1c(/C=C/C(O)CC(O)CC(=O)O)c(-c2ccc(F)cc2)c2ccccc21 (stereo not drawn) [Fluvastatin Sodium],0.669 ± 0.019
9,O=c1ccn([C@@H]2O[C@H](CO)[C@@H](O)[C@H]2O)c(=O)[nH]1 [Uridine],1.03 ± 0.034
10,CCCCNc1cc(C(=O)O)cc(S(N)(=O)=O)c1Oc1ccccc1 [Bumetanide],1 ± 0.015
11,C[C@H](Cn1cnc2c(N)ncnc21)OCP(=O)(O)O [Tenofovir],0.999 ± 0.078
12,COC(=O)N[C@H](C(=O)N[C@@H](Cc1ccccc1)[C@@H](O)CN(Cc1ccc(-c2ccccn2)cc1)NC(=O)[C@@H](NC(=O)OC)C(C)(C)C)C(C)(C)C [Atazanavir Sulfate],1.03 ± 0.027
13,CNC[C@H](O)[C@@H](O)[C@H](O)[C@H](O)CO [Meglumine],0.988 ± 0.044
14,COC(=O)Nc1ccc(-c2nc(N3CCOCC3)c3cnn(C4CCN(C(=O)OC)CC4)c3n2)cc1,0.957 ± 0.031
15,NC(=O)OCC(COC(N)=O)c1ccccc1 [Felbamate],1.04 ± 0.059
16,CCC[S+]([O-])c1ccc2[nH]c(NC(=O)OC)nc2c1 (stereo not drawn) [Albendazole Oxide],0.924 ± 0.014
17,Cc1ccnc(NS(=O)(=O)c2ccc(N)cc2)n1 [Sulfamerazine],1.05 ± 0.018
18,Nc1[nH]nc2nnc(-c3c(-c4ccccc4)nn4ccccc34)cc12,0.981 ± 0.077
19,COc1cc(N2CCC(N)CC2)ccc1Nc1ncc(Cl)c(-c2c[nH]c3ccccc23)n1,0.704 ± 0.063
20,CCOC(=O)n1ccn(C)c1=S [Carbimazole],1.07 ± 0.044
21,Cc1cc(NS(=O)(=O)c2ccc(N)cc2)no1 [Sulfamethoxazole],0.936 ± 0.023
22,CC(C)(C)C(=O)C(Oc1ccc(Cl)cc1)n1ccnc1 (stereo not drawn) [Climbazole],1.08 ± 0.038
23,CC(C)N(CCCNC(=O)Nc1ccc(C(C)(C)C)cc1)C[C@H]1O[C@@H](n2cc(Br)c3c(N)ncnc32)[C@H](O)[C@@H]1O,0.9356 ± 0.0064
24,CC1(C)S[C@@H]2[C@H](NC(=O)C(C(=O)O)c3ccccc3)C(=O)N2[C@H]1C(=O)O (stereo partly drawn) [Carbenicillin disodium],1.02 ± 0.036
25,C=C[C@@]1(C)CC(=O)[C@]2(O)[C@@]3(C)[C@@H](O)CCC(C)(C)[C@@H]3[C@H](O)[C@H](OC(C)=O)[C@@]2(C)O1 [Forskolin],0.942 ± 0.025

row,Compound,cell viability
1,O=C(CCCCCN1C(=O)c2cccc3cccc(c23)C1=O)NO [Scriptaid],0.901 ± 0.013
2,CCN(CC)C(=S)SSC(=S)N(CC)CC [Disulfiram],0.264 ± 0.057
3,Cc1cc(OCCCS(C)(=O)=O)cc(C)c1-c1cccc(COc2ccc3c(c2)OC[C@H]3CC(=O)O)c1,1.08 ± 0.071
4,COc1cc2/c(=N/c3ccc(Br)cc3F)nc[nH]c2cc1OCC1CCN(C)CC1 [Vandetanib (ZD6474)],1.01 ± 0.036
5,O=c1cc(-c2ccccc2)oc2cc(O)cc(O)c12 [Chrysin],1.05 ± 0.074
6,"O=C(CCCCCCC(=O)Nc1ccccc1)NO [Vorinostat (SAHA, MK0683)]",1.02 ± 0.035
7,CC[C@H]1OC(=O)C[C@@H](O)[C@H](C)[C@@H](O[C@@H]2O[C@H](C)[C@@H](O[C@H]3C[C@@](C)(O)[C@@H](O)[C@H](C)O3)[C@H](N(C)C)[C@H]2O)[C@@H](CC=O)C[C@@H](C)C(=O)/C=C/C(C)=C/[C@@H]1CO[C@@H]1O[C@H](C)[C@@H](O)[C@@H](OC)[C@H]1OC [Tylosin tartrate],1.05 ± 0.057
8,O=C(/C=C/c1ccc(O)c(O)c1)c1ccc(O)cc1O [Butein],1.07 ± 0.06
9,COc1ccc(S(=O)(=O)Nc2cccnc2Nc2ccc(O)cc2)cc1,0.45 ± 0.013
10,O=C1NCCc2[nH]c(-c3ccncc3)cc21,0.761 ± 0.053
11,Cc1ccc(NC(=O)c2cccc(N(C)C)c2)cc1NC(=O)c1ccc(O)cc1,0.9655 ± 0.006
12,COC(=O)C1=C(C)NC(C)=C(C(=O)OC2CCCN(Cc3ccccc3)C2)C1c1cccc([N+](=O)[O-])c1 (stereo not drawn) [Benidipine HCl],1.02 ± 0.016
13,CCNC(=O)CCC/C=C\C[C@@H]1[C@@H](/C=C/[C@@H](O)CCc2ccccc2)[C@H](O)C[C@@H]1O [Bimatoprost],1.05 ± 0.047
14,O=C(O)c1ccc2c(c1)nc(Nc1cccc(Cl)c1)c1ccncc12 [CX-4945 (Silmitasertib)],1.04 ± 0.036
15,CC1(C)O[C@@H]2C[C@H]3[C@@H]4CCC5=CC(=O)C=C[C@]5(C)[C@H]4[C@@H](O)C[C@]3(C)[C@]2(C(=O)CO)O1 [Desonide],0.947 ± 0.044
16,NCCCCCNCC12CC3CC(CC(C3)C1)C2 [IEM 1754 dihydrobroMide],0.91 ± 0.019
17,COc1c(N2C[C@@H]3CCCN[C@@H]3C2)c(F)cc2c(=O)c(C(=O)O)cn(C3CC3)c12 [Moxifloxacin HCl],1.07 ± 0.018
18,CC1(C)CCC[C@]2(C)[C@H]3CC(=O)O[C@]3(C)CC[C@@H]12 [Sclareolide],0.999 ± 0.029
19,CC(=O)OCC(=O)[C@@]1(O)[C@H](C)C[C@H]2[C@@H]3CCC4=CC(=O)C=C[C@]4(C)[C@@]3(F)[C@@H](O)C[C@@]21C [Dexamethasone Acetate],0.985 ± 0.0097
20,COc1ccc(C(=O)CC(=O)c2ccc(C(C)(C)C)cc2)cc1 [Avobenzone],0.914 ± 0.027
21,Nc1nc2c(ncn2COCCO)c(=O)[nH]1 [Aciclovir],0.947 ± 0.021
22,COc1ccc2[nH]c([S@@+]([O-])Cc3ncc(C)c(OC)c3C)nc2c1 [Esomeprazole Magnesium],0.997 ± 0.049
23,COc1ccc2[nH]c([S@@+]([O-])Cc3ncc(C)c(OC)c3C)nc2c1 [Esomeprazole Sodium],0.929 ± 0.023
24,Cc1cc(N2CCOCC2)cc2[nH]c(-c3c(NC[C@@H](O)c4cccc(Cl)c4)cc[nH]c3=O)nc12,0.71 ± 0.025
25,CC(C)NCC(O)c1ccc(O)c(O)c1 (stereo not drawn) [Isoprenaline HCl],0.978 ± 0.037

row,Compound,cell viability
1,CS(=O)(=O)N1CCN(Cc2cc3nc(-c4cccc5[nH]ncc45)nc(N4CCOCC4)c3s2)CC1,0.921 ± 0.039
2,"COc1cc(F)c(F)c(Nc2ccc(I)cc2F)c1NS(=O)(=O)C1(C[C@H](O)CO)CC1 [Refametinib (RDEA119, Bay 86-9766)]",0.906 ± 0.025
3,C#C[C@]1(O)CC[C@H]2[C@@H]3CCc4cc(O)ccc4[C@H]3CC[C@@]21C [Ethinyl Estradiol],1.06 ± 0.032
4,O=S(=O)(c1ccccc1)N(CC(F)(F)F)c1ccc(C(O)(C(F)(F)F)C(F)(F)F)cc1,0.939 ± 0.017
5,CC#CC(=O)Nc1ccc2ncnc(Nc3cccc(Br)c3)c2c1,0.615 ± 0.024
6,O=C(O)c1ccc(N2C(=O)/C(=C\c3ccc(-c4ccc([N+](=O)[O-])cc4)o3)C=C2c2ccccc2)cc1,0.942 ± 0.083
7,CCOC(=O)C1=C(C)NC(C)=C(C(=O)OCC)C1c1ccccc1/C=C/C(=O)OC(C)(C)C [Lacidipine],1.04 ± 0.048
8,O=C(O)C(Cc1c[nH]c2ccccc12)N1C(=O)c2ccccc2C1=O (stereo not drawn),0.933 ± 0.01
9,CCOc1cc(CC(=O)N[C@@H](CC(C)C)c2ccccc2N2CCCCC2)ccc1C(=O)O [Repaglinide],1.07 ± 0.037
10,CCOC(=O)c1ncn2c1CN(C)C(=O)c1cc(F)ccc1-2 [Flumazenil],1 ± 0.085
11,CC1=C(C(=O)Nc2cc3cn[nH]c3cc2F)C(c2ccc(C(F)(F)F)cc2)CC(=O)N1 (stereo not drawn),1.05 ± 0.059
12,CNC(=O)c1ccccc1Nc1nc(Nc2ccc(N3CCOCC3)cc2OC)ncc1Cl,0.718 ± 0.036
13,Cc1cc(C)c2c(c1)[C@@H](N(Cc1cc(C(F)(F)F)cc(C(F)(F)F)c1)c1nnn(C)n1)CCCN2C[C@H]1CC[C@H](C(=O)O)CC1,0.941 ± 0.038
14,CCCCN(Cc1ccc(C(=O)NO)cc1)C(=O)Nc1ccccc1 [Nexturastat A],0.942 ± 0.033
15,COC(=O)N[C@H](C(=O)N1CCC[C@H]1c1ncc(-c2ccc(-c3ccc(-c4cnc([C@@H]5CCCN5C(=O)[C@@H](NC(=O)OC)C(C)C)[nH]4)cc3)cc2)[nH]1)C(C)C,0.914 ± 0.013
16,CC(C(=O)O)c1cccc(C(=O)c2ccccc2)c1 (stereo not drawn) [Ketoprofen],1.043 ± 0.0072
17,c1cc(-c2cnn3cc(-c4ccc(N5CCNCC5)cc4)cnc23)c2cccnc2c1,0.899 ± 0.061
18,NCCCC[C@@H]1NC(=O)[C@@H](Cc2ccccc2)NC(=O)[C@H](CC(=O)O)NC(=O)CNC(=O)[C@H](CCCN=C(N)N)NC1=O [Cyclo (-RGDfK)],1.03 ± 0.035
19,CCCC1O[C@@H]2C[C@H]3[C@@H]4CCC5=CC(=O)C=C[C@]5(C)[C@H]4[C@@H](O)C[C@]3(C)[C@]2(C(=O)CO)O1 (stereo partly drawn) [Budesonide],0.966 ± 0.068
20,CNC(=O)[C@@H](c1ccccc1)N1CCc2cc(OC)c(OC)cc2[C@@H]1CCc1ccc(C(F)(F)F)cc1 [Almorexant HCl],1.03 ± 0.039
21,COc1cc(C(C)=O)ccc1OCCCN1CCC(c2noc3cc(F)ccc23)CC1 [Iloperidone],1.04 ± 0.03
22,COc1ccc(/C=C\c2cc(OC)c(OC)c(OC)c2)cc1O [Combretastatin A4],0.285 ± 0.005
23,CN1C(CCl)Nc2cc(Cl)c(S(N)(=O)=O)cc2S1(=O)=O (stereo not drawn) [Methyclothiazide],1.09 ± 0.033
